Measurements: PubChem BioAssay AID588342 (National Center for Advancing Translational Sciences (NCATS), 2011)
The whole screen tested about 360,000 compounds, of which about 25,000 (6.9%) were called active. The inconclusive results got no clear call from the source; some entries with a clear call stand among them for comparison. The call rests on the fitted dose curve; in most records, active means well fitted inhibition curve with a large enough effect; inconclusive means small, poorly fitted or top-dose-only effect; inactive means flat fitted curve, though single readings scatter. Where the call is inconclusive, the potency comes from a doubtful curve fit.
Further: nearly all actives have a fitted effect of over 55% in size.
Potency means the concentration at half of the fitted maximal effect; tags describe the fitted curve by direction and shape.
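Wherever activity change, negative = inhibition is given: plate controls were vehicle for no effect and reference inhibitor for full effect.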

Each molecule was assayed against Luciferin 4-monooxygenase (Photinus pyralis) (UniProt P08659) (assay: qHTS profiling assay for firefly luciferase inhibitor/activator using purifed enzyme and Km concentrations of substrates (counterscreen for miR-21 project)). Details: purified FLuc, luminescence inhibition; activity change, negative = inhibition: at 57.5 µM (top of the series).
Chain of UniProt P08659 (P08659 whole entry, looked up): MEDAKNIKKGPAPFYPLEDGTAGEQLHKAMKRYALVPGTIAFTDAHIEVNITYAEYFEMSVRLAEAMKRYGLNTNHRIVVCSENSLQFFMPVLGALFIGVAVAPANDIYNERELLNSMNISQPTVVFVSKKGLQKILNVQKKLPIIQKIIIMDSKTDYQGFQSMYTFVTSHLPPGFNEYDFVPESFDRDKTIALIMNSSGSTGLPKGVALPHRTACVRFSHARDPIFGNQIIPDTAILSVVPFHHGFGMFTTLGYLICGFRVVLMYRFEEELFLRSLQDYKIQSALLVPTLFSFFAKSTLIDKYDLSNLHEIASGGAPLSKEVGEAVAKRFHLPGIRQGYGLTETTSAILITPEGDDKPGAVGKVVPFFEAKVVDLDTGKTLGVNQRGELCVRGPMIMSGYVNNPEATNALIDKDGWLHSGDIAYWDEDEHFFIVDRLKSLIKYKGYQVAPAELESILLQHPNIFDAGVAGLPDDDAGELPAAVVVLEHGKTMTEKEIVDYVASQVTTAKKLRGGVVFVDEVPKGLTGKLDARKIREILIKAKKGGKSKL
How it was run: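 Purified P. pyralis luciferase (10nM final) with 10uM D-luciferin and 10uM ATP (Km levels) in 50mM Tris acetate pH 7.5, 10mM Mg acetate, 0.01% Tween-20, 0.05% BSA; qHTS 6-point titration, ~60 µM downward; luminescence read.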
CCN(C(=O)Cn1nnc2sc(-c3ccccc3)cc2c1=O)c1cccc(C)c1 was tested, and the Potency was inconclusive: 13.5 µM [inhibitor, partial curve, poor fit].
For O=C(Nc1nccs1)c1ccc(COc2ccc(F)cc2)o1, the Potency was active: 15.1 µM.
In the case of CCC(C)NC(=O)CSc1nc2n[nH]c(C)c2c(=N)n1-c1ccc(C)c(Cl)c1 (stereo not given), the “activity change, negative = inhibition” value is reported as inactive: -0.389%.
COC(=O)COc1ccc(-c2nccc(-c3ccccn3)n2)cc1 was tested, and the Potency was inconclusive: 10.7 µM [inhibitor, partial curve].
O=C(Nc1ccc(F)cc1F)c1cc2nc(-c3ccco3)cc(C(F)(F)Cl)n2n1 was tested, and the “activity change, negative = inhibition” value was inactive: -2.56%.
In the case of O=C(/C=C/NCC(=O)c1ccccc1)c1ccc(Br)cc1, the “activity change, negative = inhibition” value is reported as inactive: -17.4%.
With Cc1cc(/C=C(\C#N)C(=O)NCc2ccco2)c(C)[nH]1 the Potency was inconclusive: 16.9 µM [inhibitor, partial curve].
CCN(c1ccccc1)S(=O)(=O)c1ccc(C(=O)Nc2ccc(C)cn2)cc1 was tested, and the Potency was inconclusive: 37.9 µM [inhibitor, single point].
N/C(=N\OC(=O)CCCc1ccccc1)c1ccccc1 was tested, and the Potency was active: 4.78 µM.
With COc1ccc(CC(=O)OCC(=O)c2ccc(OC)cc2)cc1 the Potency was inconclusive: 26.9 µM [inhibitor, partial curve, poor fit].
In the case of Cc1ccc(C(=O)Nc2ccc(C)c(S(=O)(=O)N3CCOCC3)c2)c(C)c1, the Potency is reported as inconclusive: 30.1 µM [inhibitor, single point].
For Cc1cc(C(=O)N/N=C/c2cccnc2)c(C)o1, the Potency was inconclusive: 37.9 µM [inhibitor, partial curve, poor fit].
For CC(C)n1c(CSCc2ccc(Cl)cc2Cl)n[nH]c1=S, the Potency was inconclusive: 21.3 µM [inhibitor, partial curve, poor fit].
COc1ccc(C(=O)N2CCN(c3cccc(Cl)c3)CC2)cc1 was tested, and the Potency was inconclusive: 37.9 µM [inhibitor, partial curve, poor fit].
For Cc1ccc(-c2nc3cccnc3o2)cc1NC(=O)COc1ccc(C(C)(C)C)cc1, the Potency was inconclusive: 21.3 µM [inhibitor, partial curve].
In the case of O=C(NC1CCCCC1)c1cc2ccccc2cc1O, the Potency is reported as active: 16.9 µM.
With COc1ccc(NC(=O)/C=C/c2ccccc2)cn1 the Potency was active: 8.49 µM.
Cn1cc(SCC(=O)Nc2ccc3c(c2)OCCO3)c2ccccc21 was tested, and the Potency was active: 16.9 µM.
In the case of N#C/C(=C\c1ccc(Sc2ccccc2)o1)c1nc2ccccc2[nH]1, the Potency is reported as active: 2.69 µM.
O=C(COC(=O)c1c(Cl)cccc1Cl)Nc1cccc(S(=O)(=O)NC2=NCCCCC2)c1 was tested, and the Potency was inconclusive: 23.9 µM [inhibitor, partial curve, poor fit].
